In PubChem BioAssay AID1745845 (National Center for Advancing Translational Sciences (NCATS), 2022):
Among all 360,000 compounds or so, about 2,600 (0.72%) were called active. The shares of active, inactive and inconclusive entries below differ from those in the screen. Calls follow the shape of the dose curve; as a rule, active = well fitted inhibition curve with a large enough effect; inconclusive = small, poorly fitted or top-dose-only effect; inactive = no such curve, though single readings can be large or run the other way. Potencies beside an inconclusive call are fits to weak or partial responses and may not hold up.

Experiment: Primary qHTS for Inhibitors of ATXN expression; also: nearly all actives have a fitted effect of over 55% in size
Conditions: HEK-293 ATXN2-luciferase reporter, luminescence, 24 h; activity change, negative = inhibition: at 57 µM (top of the series)
Summary of the method: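 ATXN2-luciferase reporter cells (luciferase flanked by upstream and downstream ATXN2 gene portions) were treated 24 h at 37 °C with compounds at up to 57 uM. SteadyGlo luminescence gave expression; GF-AFC fluorescence gave viability.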
% is scaled to controls: 0 for no effect and ±100 for the full control effect; potency is read from the fitted curve at half-maximal effect; tags tell the direction and shape of the fitted curve.

SMILES | Potency | activity change, negative = inhibition
CCn1c2ccccc2c2cc(NC(=O)COC(=O)Cc3cn4ccsc4n3)ccc21 | active: 28.2 µM | –
O=[N+]([O-])c1cccc(N=Nc2ccc(O)cc2O)c1 | inconclusive: 22.4 µM [inhibitor, single point] | –
COc1ccc(C(C)=O)cc1CSc1nnc(-c2ccncc2)n1C | – | inactive: -0.543% [at 11.3 µM]
Cc1cc(Cl)n2nc(C)c(-c3ccc(Cl)cc3)c2n1 | inconclusive: 23.8 µM [inhibitor, partial curve, poor fit] | –
OC(COc1ccccc1)CN1CCN(C(c2ccccc2)c2ccccc2)CC1 (stereo not drawn) | – | inactive: -26.2%
COc1ccc(F)cc1C(=O)C1CCCN(Cc2cn(C)c3ccccc23)C1 (stereo not drawn) | inconclusive: 14.1 µM [inhibitor, partial curve] | –
COc1ccccc1N1C(=O)c2cccc3c(N(C)CCO)ccc(c23)C1=O | – | inactive: -9.26%
NC(=O)c1ccccc1OCC(=O)N1CCC(Cc2ccccc2)CC1 | inconclusive: 4.47 µM [inhibitor, partial curve, poor fit] | –
CCC(CO)Nc1nc2ccc(Cl)cc2c2ccccc12 (stereo not drawn) | inconclusive: 12.6 µM [inhibitor, partial curve] | –
Cc1ccc(-n2nnnc2SCC(=O)c2cc(C)n(-c3cc(C)on3)c2C)cc1 | – | inactive: 4.52%
CN1CCc2c(n(Cc3ccc(C(=O)NO)cc3)c3ccccc23)C1 | inconclusive: 21.7 µM [inhibitor, partial curve] | –
N=C(N)c1ccc(N=Nc2c(O)ccc3c2[nH]c2ccccc23)cc1 | inconclusive: 37.7 µM [inhibitor, single point] | –
NC(=O)c1cccc(-c2ccnc3c2CC(C(=O)NCc2ccc(F)c(F)c2)O3)c1 (stereo not drawn) | – | inactive: -3.02%
c1ccc(COc2ccc(-c3cc4nc(NCCN5CCOCC5)ccn4n3)cc2)cc1 | inconclusive: 39.8 µM [inhibitor, single point] | –
COC(=O)[C@@]1(Cc2ccc(F)cc2)[C@H]2c3cc(C(=O)N4CCCC4)n(CCF)c3C[C@H]2CN1C(=O)c1ccccc1 | inconclusive: 22.4 µM [inhibitor, partial curve, poor fit] | –
Cc1ccc(S(=O)(=O)N2CCCCC2)cc1NC(=O)CNC(C)c1ccc(Cl)c(Cl)c1 (stereo not drawn) | inconclusive: 33.6 µM [inhibitor, partial curve, poor fit] | –
O=C(Nc1cccc(NC(=O)c2cccs2)c1)c1ccc2c(c1)OCO2 | – | inactive: -14.4%
CCOc1ccc(Oc2c(/C=N/NC(=O)COc3ccccc3OC)c(C)nn2-c2ccccc2)cc1 | inconclusive: 14.1 µM [inhibitor, partial curve] | –
